Measurements from PubChem BioAssay AID504845 (National Center for Advancing Translational Sciences (NCATS), 2011).
The campaign covered roughly 390,000 compounds. About 150 (0.038%) were called active. Inconclusive results, whose numbers are uncertain, are shown with a selection of clear calls. Calls follow the shape of the dose curve; as a rule, active = well fitted inhibition curve with a large enough effect; inconclusive = small, poorly fitted or top-dose-only effect; inactive = no such curve, though single readings can be large or run the other way. Potencies beside an inconclusive call are fits to weak or partial responses and may not hold up.

What follows are molecules tested against Regulator of G-protein signaling 4 (Homo sapiens) (UniProt P49798) (assay: Inhibitors of Regulator of G Protein Signaling (RGS) 4: qHTS). Settings: Transcreener GDP fluorescence polarization, RGS4-accelerated GTP hydrolysis; series mostly up to 114 µM; activity change, negative = inhibition: at the top concentration.
Procedure, shortened: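 MLSMR compounds (23 nl, pin-transferred) preincubated 10 min at room temperature with a 500nM (2x) first reagent, then RGS4 at 900nM (2x) plus Transcreener GDP mix added; fluorescence polarization (620/688 nm) read before and after 90 min at 30 °C.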
% is scaled to controls: 0 for no effect and ±100 for the full control effect; potency is read from the fitted curve at half-maximal effect; tags tell the direction and shape of the fitted curve.
Also: nearly all actives have a fitted effect of over 75% in size.

Chain of UniProt P49798 (P49798 whole entry, looked up): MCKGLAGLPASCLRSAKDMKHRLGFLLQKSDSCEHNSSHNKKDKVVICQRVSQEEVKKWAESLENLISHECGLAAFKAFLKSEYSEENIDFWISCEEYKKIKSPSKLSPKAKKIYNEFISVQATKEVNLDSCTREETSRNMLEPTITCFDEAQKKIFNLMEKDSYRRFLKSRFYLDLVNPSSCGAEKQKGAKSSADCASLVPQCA

Compound | Potency | activity change, negative = inhibition
CCOc1ccc2c(C)c(Cl)c(=O)oc2c1 | inconclusive: 89.1 µM [inhibitor, single point] | –
COc1ccc(CCNC(=O)c2cc(S(=O)(=O)N(C)c3ccccc3)ccc2Cl)cc1 | inconclusive: 79.4 µM [inhibitor, partial curve, poor fit] | –
O=c1c(-c2nnc(SCc3ccc(Cl)cc3Cl)o2)cccn1Cc1ccccc1 | inconclusive: 89.1 µM [inhibitor, partial curve, poor fit] | –
Cc1ccc(C)c(/C(O)=C2/C(=O)C(=O)N(CCN3CCOCC3)C2c2ccco2)c1 (configuration not stated) | inconclusive: 70.8 µM [inhibitor, partial curve, poor fit] | –
COc1ccccc1OCC(=O)NNC(=S)NC(=O)c1ccco1 | inconclusive: 100 µM [inhibitor, single point] | –
COc1ccc(/C=N/NC(=O)c2cccc(NC(=O)c3ccc(Cl)cc3)c2)c(OC)c1 | inconclusive: 50.1 µM [inhibitor, partial curve, poor fit] | –
Fc1ccc(CSc2ccc(-c3cccs3)nn2)cc1 | – | inactive: -36.1%
Cc1nc(-c2ccc(Cl)cc2)sc1C1(C)CC(c2ccc([N+](=O)[O-])cc2)=NO1 (configuration not stated) | – | inactive: -19.4%
COc1ccc(/C=N/Nc2ccccn2)c(OC)c1OC | – | inactive: -9.87%
Clc1cccc(-c2nnc(SC/C=C/c3ccccc3)n2Cc2ccco2)c1 | inconclusive: 70.8 µM [inhibitor, partial curve, poor fit] | –
COc1ccccc1CNCCS(=O)(=O)NN1CCOCC1 | inconclusive: 20 µM [inhibitor, full curve, poor fit] | –
CCCOC(=O)c1c(NC(=O)C2c3ccccc3Oc3ccccc32)sc2c1CCCC2 | inconclusive: 100 µM [inhibitor, partial curve, poor fit] | –
COc1ccc(-n2ncc3c2CC(C)(C)CC3NC(=O)c2cn[nH]c2)cc1 (configuration not stated) | – | inactive: 4.05%
O=C1CC(NS(=O)(=O)c2ccc([N+](=O)[O-])cc2)CN1c1ccc(Cl)cc1 (configuration not stated) | – | inactive: -20%
COc1cc(NC(=O)C2CC(=O)NC3=C2C(=O)CCC3)c(OC)cc1Cl (configuration not stated) | – | inactive: -37.3%
O=C(C[n+]1ccc(C(=O)N/N=C/c2ccc(Br)cc2)cc1)c1ccccc1 | inconclusive: 100 µM [inhibitor, single point] | –
CN(C)c1nc(=Nc2cccc(Cl)c2)ss1 | inconclusive: 50.1 µM [inhibitor, partial curve, poor fit] | –
CCOC(=O)c1c(-c2ccc(OC)cc2)csc1NC(=O)CCN1C(=O)c2ccccc2C1=O | inconclusive: 79.4 µM [inhibitor, partial curve, poor fit] | –
COc1cccc(NC(=O)C2CCN(c3nnc(C)c4c(C)n(-c5ccccc5)nc34)CC2)c1 | – | inactive: -14.7%
COc1cccc(C(c2c(NC(=O)c3ccco3)sc(C)c2C)N2CCOCC2)c1 (configuration not stated) | – | inactive: -20.1%
CCOc1ccc(S(=O)(=O)n2cc(-c3ccc(F)cc3)c(N)n2)cc1 | – | inactive: -6.72%
CC(C)OC(=O)c1c(NC(=O)c2ccco2)sc2c1CCCCC2 | – | inactive: -14.9%
O=C(NCc1ccco1)C1CCCN(S(=O)(=O)c2ccc(-n3cnnn3)cc2)C1 (configuration not stated) | inconclusive: 79.4 µM [inhibitor, single point] | –

Compound | Potency | activity change, negative = inhibition
CCOC(=O)c1cc(C)[nH]c(=S)c1C#N | inconclusive: 56.2 µM [inhibitor, partial curve, poor fit] | –
CCOc1ccccc1N(CC(=O)Nc1ccccc1C(=O)N1CCCC1)S(C)(=O)=O | inconclusive: 100 µM [inhibitor, single point] | –
COc1cc2cccc(OC)c(=O)c2c(OC)c1OC | inconclusive: 89.1 µM [inhibitor, single point] | –
COc1ccc(C2C(C#N)=C(N)N(Nc3ccccc3)C3=C2C(=O)CC(C)(C)C3)cc1C (configuration not stated) | – | inactive: -5.98%
S=C(Nc1cccc2ccccc12)Nc1cccc2ccccc12 | inconclusive: 50.1 µM [inhibitor, partial curve, poor fit] | –
O=[N+]([O-])c1ccc(S(=O)(=O)N2CCSC2c2ccco2)cc1 (configuration not stated) | inconclusive: 50.1 µM [inhibitor, partial curve, poor fit] | –
COCCNC(=O)c1ccc(Cn2c(=S)[nH]c3cc4c(cc3c2=O)OCO4)cc1 | inconclusive: 20 µM [inhibitor, full curve, poor fit] | –
O=C(CN1C(=O)NC2(CCCCC2)C1=O)Oc1ccc2ccc(=O)oc2c1 | – | inactive: -18.9%
CCN(Cc1cnn(C)c1)Cc1nc(Cc2ccccc2Cl)no1 | – | inactive: 8.66%
CCOC(=O)c1[nH]c2ccc(OC)cc2c1NC(=S)N1CCN(c2ccccc2OC)CC1 | – | inactive: -34.4%
COc1cccc(-c2nnc(SCC(=O)NC3CCCCC3)o2)c1 | inconclusive: 79.4 µM [inhibitor, partial curve, poor fit] | –
CCCc1cnc(NCCNCC(O)COc2ccc(Cl)c(Cl)c2)nc1 (configuration not stated) | – | inactive: 12.5%
CSc1ncc(CN2CCCC(C(=O)Nc3ccc(-c4ccco4)cc3)C2)cn1 (configuration not stated) | inconclusive: 112 µM [inhibitor, partial curve, poor fit] | –
CCOC(=O)c1[nH]c(C)c(CCC(=O)NCc2ccc(OC)cc2)c1C | – | inactive: -6.06%
CCCn1nc(NS(=O)(=O)c2cccc3nonc23)c2cc3cccc(C)c3nc21 | inconclusive: 50.1 µM [inhibitor, partial curve, poor fit] | –
O=C(CC1NCCN(Cc2ccccc2)C1=O)Nc1ccc(Cl)cc1 (configuration not stated) | inconclusive: 89.1 µM [inhibitor, single point] | –
Cn1c(=O)c2c(nc(N/N=C/c3ccc(OC(=O)c4ccco4)cc3)n2Cc2ccccc2)n(C)c1=O | inconclusive: 50.1 µM [inhibitor, partial curve, poor fit] | –
O=C(N/N=C\c1ccc([N+](=O)[O-])s1)c1cncc(Br)c1 | – | inactive: 13.6% [at 11.4 µM]
CCOC(=O)c1noc2nc(C)n(Cc3cccc(C#N)c3)c(=O)c12 | – | inactive: 3.73%
Clc1ccc(-n2nnc(-c3nccs3)n2)cc1Cl | inconclusive: 79.4 µM [inhibitor, partial curve, poor fit] | –
Oc1c(CN2CCOCC2)cc(CN2CCOCC2)c(O)c1CN1CCOCC1 | inconclusive: 20 µM [inhibitor, full curve, poor fit] | –
COc1ccc(-n2nc3cc(C)c(NC(=S)NC(=O)c4ccccc4C)cc3n2)cc1 | – | inactive: -27.6%
O=C(NCCN1CCN(c2ccccc2)CC1)Nc1cccc(Cl)c1 | inconclusive: 79.4 µM [inhibitor, partial curve, poor fit] | –

Compound | Potency | activity change, negative = inhibition
Cc1ccc(NC(=O)c2cnc(N3CCN(c4ccccn4)CC3)c3ccccc23)c(Br)c1 | inconclusive: 44.7 µM [inhibitor, partial curve, poor fit] | –
COC(=O)c1cc(C)nc2c1c(C)nn2-c1ccccc1 | – | inactive: 1.98%
CC1CC(C)CN(S(=O)(=O)c2ccc(C(=O)NCc3ccc4c(c3)OCO4)cc2)C1 (configuration not stated) | – | inactive: 3.84%
C=C(C)C(=O)Nc1cccc(C2=NOC3(C2)C[C@@H](C(N)=O)N(C(=O)C2(C)CC2)C3)c1 (some centres not stated) | inconclusive: 17.8 µM [inhibitor, full curve, poor fit] | –
Cc1nn(-c2ccccc2)c2sc(-c3n[nH]c(=S)o3)cc12 | inconclusive: 79.4 µM [inhibitor, partial curve, poor fit] | –
O=C(NC(Cc1c[nH]c2ccccc12)C(=O)N/N=C/c1ccc(Cl)cc1)c1cccs1 (configuration not stated) | inconclusive: 35.5 µM [inhibitor, full curve, poor fit] | –
CC(OCCN1CCCC1)(c1ccc(F)cc1)c1ccc(F)cc1 | inconclusive: 89.1 µM [inhibitor, single point] | –
Cc1nc2c(-c3ccc(F)cc3)c(C)nn2c(C)c1CCC(=O)NCc1ccco1 | inconclusive: 56.2 µM [inhibitor, partial curve, poor fit] | –
Cc1ccc(C(=O)CN2C(=O)NC3(CCc4ccccc43)C2=O)s1 (configuration not stated) | inconclusive: 79.4 µM [inhibitor, single point] | –
Cc1cc(Cl)n2c(nc3cc(F)c(F)cc32)c1C#N | inconclusive: 112 µM [inhibitor, partial curve, poor fit] | –
O=C1c2ccccc2C(=O)c2c(NCCc3ccc(O)cc3)ccc(NCCc3ccc(O)cc3)c21 | inconclusive: 0.751 µM [inhibitor, full curve, poor fit] | –
Cc1ccc(NC(=O)c2nc(S(=O)(=O)Cc3ccccc3C)ncc2Cl)cc1C | inconclusive: 44.7 µM [inhibitor, partial curve, poor fit] | –
O=C(O)CC1S/C(=N\N=C2\C(=O)Nc3ccccc32)N(c2ccc(O)cc2)C1=O (configuration not stated) | – | inactive: -8.42%
OCC1(Cc2cccc(Cl)c2)CCCN(Cc2ccc(F)c(F)c2)C1 (configuration not stated) | – | inactive: -1.67%
CSc1nc(C)cc(SC(C(C)=O)C(=O)Nc2ccccc2)n1 (configuration not stated) | inconclusive: 31.6 µM [inhibitor, partial curve, poor fit] | –
CN1CCCC(CN2c3ccccc3Sc3ccccc32)C1 (configuration not stated) | – | inactive: 2.52%
Cn1c(CO)cnc1SCc1ccc([N+](=O)[O-])cc1 | inconclusive: 89.1 µM [inhibitor, single point] | –
Nc1ccc(S(=O)(=O)O)cn1 | inactive | –
O=C(O)CCCCCN1C(=O)/C(=C\c2ccc(-c3ccc(Cl)cc3)o2)SC1=S | inconclusive: 112 µM [inhibitor, partial curve, poor fit] | –
CC(C)OC(=O)c1c(-c2ccccc2)c(-c2ccccc2)nn(C)c1=O | inconclusive: 56.2 µM [inhibitor, partial curve, poor fit] | –
Cc1ccc(/C(=N/Nc2nc3ccccc3s2)C2=C(O)c3ccccc3C2=O)cc1 | inconclusive: 89.1 µM [inhibitor, single point] | –
